From paper PMC4336329 (PLoS ONE, 2015)
In all, about 310,000 compounds went through this assay and about 14,000 (4.5%) showed an effect of 50% or more. The effect is printed as a negative number. The list shows a part of the results.

target: human ether-à-go-go-related gene (hERG) potassium channel (human, UniProt Q12809); test: primary screen, population patch clamp on CHO cells stably expressing hERG
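Note: peak tail current of the secondary pulse compared with the same well before compound.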

human ether-à-go-go-related gene (hERG) potassium channel, sequence (Q12809 whole entry, looked up): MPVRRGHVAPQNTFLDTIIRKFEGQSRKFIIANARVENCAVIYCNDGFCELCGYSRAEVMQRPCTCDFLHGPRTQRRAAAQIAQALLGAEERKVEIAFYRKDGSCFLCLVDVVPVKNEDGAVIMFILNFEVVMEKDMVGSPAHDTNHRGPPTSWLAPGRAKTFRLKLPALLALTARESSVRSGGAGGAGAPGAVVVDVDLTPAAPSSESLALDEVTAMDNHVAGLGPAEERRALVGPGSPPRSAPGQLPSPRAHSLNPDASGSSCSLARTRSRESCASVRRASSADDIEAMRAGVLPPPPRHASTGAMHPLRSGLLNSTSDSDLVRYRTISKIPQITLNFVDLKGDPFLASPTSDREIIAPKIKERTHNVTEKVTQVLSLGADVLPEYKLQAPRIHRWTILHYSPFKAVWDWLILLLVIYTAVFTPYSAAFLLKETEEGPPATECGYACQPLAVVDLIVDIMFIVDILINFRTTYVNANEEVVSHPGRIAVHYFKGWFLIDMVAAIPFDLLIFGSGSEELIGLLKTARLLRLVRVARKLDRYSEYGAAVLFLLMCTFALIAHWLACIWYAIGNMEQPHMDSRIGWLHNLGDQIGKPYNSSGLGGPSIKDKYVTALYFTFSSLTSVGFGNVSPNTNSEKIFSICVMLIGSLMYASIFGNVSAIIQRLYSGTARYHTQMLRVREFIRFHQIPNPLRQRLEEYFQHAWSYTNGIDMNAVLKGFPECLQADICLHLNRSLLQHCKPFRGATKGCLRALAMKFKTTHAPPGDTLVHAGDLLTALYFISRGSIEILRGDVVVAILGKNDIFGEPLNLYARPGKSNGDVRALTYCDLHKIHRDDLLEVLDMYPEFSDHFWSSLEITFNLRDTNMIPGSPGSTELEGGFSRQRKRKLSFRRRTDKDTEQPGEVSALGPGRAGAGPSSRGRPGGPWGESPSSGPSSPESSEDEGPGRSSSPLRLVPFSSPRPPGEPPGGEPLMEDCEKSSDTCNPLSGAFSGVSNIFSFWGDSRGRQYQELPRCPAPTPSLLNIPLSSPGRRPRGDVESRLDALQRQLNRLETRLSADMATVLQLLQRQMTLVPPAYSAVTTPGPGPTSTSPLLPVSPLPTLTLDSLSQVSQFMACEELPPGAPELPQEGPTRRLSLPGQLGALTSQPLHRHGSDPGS

Point of comparison: `O=C(NCCN=C1NS(=O)(=O)c2ccccc21)c1ccc2nccnc2c1`, “hERG current change (%, negative = inhibition) at 10uM” value 14.7%. Against it:
- CCc1cc(=O)oc2cc(C)cc(OC(C)C(=O)NC(Cc3c[nH]c4ccc(O)cc34)C(=O)O)c12 (centres unmarked) — lower, -1.41%
- S=C(NCCCN1CCOCC1)Nc1ccc(-c2nc3ccccc3[nH]2)cc1 — lower, -11.7%
- C#CCO[C@@H]1C[C@H](n2cnc3c(NC(=O)c4ccccc4)ncnc32)O[C@@H]1CO — higher, 18.4%
- O=C(O)c1ccccc1NC(=O)C(c1ccccc1)c1ccccc1 — higher, 27.4%
- O=C(COC(=O)c1ccc([N+](=O)[O-])o1)c1ccccc1 — the same, 14.7%
- Cc1ccc(CNC(=O)C2CC(c3ccccc3F)=NO2)cc1 (centres unmarked) — lower, -3.18%
- O=C(COc1cc(Cl)ccc1Cl)Nc1ccc2c(c1)CCC2 — lower, 9.57%
- FC(F)(F)c1ccc(NC2=NCCCS2)cc1 — lower, 4.96%
- CCCC(=O)Nc1ccc2c(c1)nc(CN1CCCCC1)n2C — lower, 2.55%
- CN1CCN(S(=O)(=O)c2cccc(C(=O)Nc3ccc(Br)cc3Br)c2)CC1 — lower, -44.2%
- CS(=O)(=O)NN1C(=O)c2ccccc2NC1c1cccc2cccnc12 (centres unmarked) — lower, -0.225%
- Cc1ccc(Cl)cc1NC(=O)c1cc(NC(=O)CCCC(=O)O)ccc1N1CCCCC1 — lower, -5.59%
- CCC(=Cc1ccc(CC)cn1)CC — lower, 1.92%
- CCC(CC)c1nnc(NC(=O)C2CC(=O)N(C3CCCC3)C2)s1 (centres unmarked) — lower, -2.25%
- O=c1oc2ccc(Cl)cc2nc1/C=C(\O)c1ccco1 — lower, -13.6%
- CC(=O)N1CCN(C(=O)c2ccco2)CC1 — higher, 28.5%
- Cc1c(-c2cccc(NC(=O)c3ccco3)c2)nc2ncccn12 — lower, -13.3%
- NNC(=O)CSc1nnc(-c2ccccc2)n1-c1ccccc1 — lower, 8.61%
- O=C(c1ccc(Cl)cc1)n1c(NCc2ccccc2)n[nH]c1=S — higher, 17.2%
- O=C(CNC(=O)c1ccco1)N/N=C/c1ccc(C(=O)O)cc1 — higher, 19.9%
- CSc1cccc(NC(=O)CN(C)S(=O)(=O)c2ccccc2)c1 — lower, 0.276%
- COc1cccc(/C=C/C(=O)c2ccc[nH]2)c1 — lower, 3.13%
- COc1ccc(-c2nc(-c3cccc(C)c3)[nH]c(=O)c2C#N)cc1 — lower, 14.6%
- COc1ccc(S(=O)(=O)N2CCCCC2)cc1NC(=O)C1CCCO1 (centres unmarked) — lower, -12.5%
- CS(=O)(=O)N(CCc1ccccc1)CC(=O)N1CCCCC1 — lower, 4.29%
- CCOc1ccc(NC(=O)CSc2nncn2C)cc1 — higher, 18.7%
- Cc1ccc(Nc2nc(N3CCN(C)CC3)nc(N)c2[N+](=O)[O-])cc1C — lower, -4.6%
- CCN(CC(=O)NCc1cccs1)C(=O)c1ccc(NS(=O)(=O)c2cccc([N+](=O)[O-])c2)cc1 — lower, -19.7%
- Cn1c(CNS(=O)(=O)c2ccc(Cl)cc2)n[nH]c1=S — lower, 14.4%
- COC(=O)c1cc2c(ccn2C)n1C — higher, 19.5%
- CCC(c1nnnn1Cc1cccs1)N1CCN(C(=O)c2ccco2)CC1 (centres unmarked) — lower, -36.5%
- CCCOc1ccc(OC(=O)c2ccc(Br)o2)cc1 — lower, 7.2%
- O=S(=O)(/C=C/c1ccccc1)Nc1ccc2c(c1)OCO2 — lower, -24.9%
- CCCCC(=O)Nc1ccc(C(=O)NCc2ccncc2)cc1 — lower, 3.31%
- Cc1ccc(OCCCC(=O)Nc2ccc3c(c2)OCCO3)cc1 — lower, -7.83%
- CN(Cc1ccc(-n2cccn2)cc1)Cc1nc(-c2cnccn2)no1 — lower, -58.2%
- COc1cccc(S(=O)(=O)Nc2cccnc2)c1 — higher, 16.4%
- CN(C)CCN(C(=O)C1CCN(S(=O)(=O)c2cccs2)CC1)c1nc2ccc(F)cc2s1.Cl — lower, -31.1%
- CCCCC(=O)N/N=C/c1c(O)n(C2CC2)c(=S)[nH]c1=O — lower, 1.52%
- Cn1c(=O)n(C)c2cc(S(=O)(=O)NCCO)ccc21 — lower, 1.5%
- Cc1ccccc1NC(=S)NC1CC2CCC(C1)N2Cc1ccco1 (centres unmarked) — lower, 0.85%
- CCCCCCNC(=O)CC(NS(=O)(=O)c1ccc(OC)cc1)C(C)C (centres unmarked) — lower, -12.6%
- CC1(c2nnc(-c3cccc(Cl)c3)o2)CC(c2ccccc2)=NO1 (centres unmarked) — lower, 2.88%
- CCc1cccc(NC(=O)[C@@H]2CCCN2C2=NS(=O)(=O)c3ccccc32)c1 — lower, -35.1%
- CCOc1ccc(NC(=O)c2cccc3c2C(=O)N(CCOC)C3)cc1 — lower, 13.5%
- CCCN1C(=O)/C(=C\C=C2/C=CN(CC)c3ccccc32)SC1=S — lower, 7.49%
- CC1CC(C)CN(C(=O)c2cc(-c3ccccn3)nc3ccccc23)C1 (centres unmarked) — lower, -6.19%
- COc1ccccc1CN1CC(C(=O)NCc2ncccc2C)CCC1=O (centres unmarked) — lower, -3.69%
- Cc1cc(C(=O)N2CCCC(C(=O)c3cccc(C(F)(F)F)c3)C2)n[nH]1 (centres unmarked) — lower, 0.443%
- Cc1cccc(C)c1NC(=O)COn1nnc2ccc(C(F)(F)F)cc21 — lower, -3.63%
- CCOc1ccc2nc(NC(=O)C3CCCO3)sc2c1 (centres unmarked) — lower, 1.55%
- COc1ccc(C(=O)Nc2ccc(CN3CCCCC3)cc2)cc1 — lower, -40.3%
- O=C(OCc1ccccc1)C1CCCN1C(=O)c1ccccc1[N+](=O)[O-] (centres unmarked) — lower, -8.34%
- C=Cn1c(N2CCOCC2)nc2c1c(=O)[nH]c(=O)n2C — lower, -11.5%
- COc1cc(O)c(CC=C(C)C)c(O)c1C(=O)CCc1ccc(O)cc1 — lower, 4.79%
- O=C(COc1ccccc1-c1ccccc1)N/N=C/c1cccc2ccccc12 — lower, 0.297%
- C/C(CCCO)=N/Nc1ccc([N+](=O)[O-])cc1[N+](=O)[O-] — lower, -29.4%
- Cc1ccc(-c2nnn(CC(=O)N(c3cccc(F)c3)C(C(=O)NC3CCCC3)c3ccco3)n2)o1 (centres unmarked) — higher, 15.1%
- Cc1cc(C)n(-c2nc3ccccc3c(=O)n2OCc2ccc(F)cc2)n1 — lower, 8.17%
- CCC(CC)C(=O)OCC(=O)Nc1cccc([N+](=O)[O-])c1 — lower, -12.3%
- CCOc1ccc(NC(=O)C2CC(=O)N(C(C)C)C2)cc1 (centres unmarked) — lower, 12.6%
- O=C(Cc1ccccc1)Nc1cccc([N+](=O)[O-])c1 — lower, 4.54%
- COc1cccc2cc(C(N)=O)/c(=N/NC(=O)COc3ccc(Cl)cc3)oc12 — the same, 14.7%
- COC(=O)CSc1nnc(-c2ccccc2OC)o1 — lower, 12%
- CCSc1nnc(NC(=O)C2CCN(S(=O)(=O)c3ccccc3C(F)(F)F)CC2)s1 — lower, -3.48%
- COc1cc(CCC(=O)OCC(=O)N(CCC#N)c2ccccc2)cc(OC)c1OC — lower, -5.22%
- CC1(C)Cc2nc(NCCN3CCOCC3)c(C#N)cc2CO1 — lower, -6.05%
- CC1(C)Cc2c(sc3c2C2=NCCN2C=N3)CS1.Cl — lower, -16.3%
- CCOC(=O)c1sc2nc(C)nc(NCc3ccc(Cl)cc3)c2c1C — lower, -80.6%
- CC(=O)c1ccc(OCC(O)CN2CCN(S(=O)(=O)c3cccc(Br)c3)CC2)cc1 (centres unmarked) — higher, 22.8%
- O=C(CN1CCN(S(=O)(=O)N2CCCCCC2)CC1)Nc1ccc(F)cc1 — lower, -74.9%
- Cc1ccc(Cc2cnc(NC(=O)c3cccs3)s2)cc1 — lower, -5.59%
- COc1ccc(Cn2c(CO)cnc2SCC(=O)Nc2cc(C)on2)cc1 — lower, 10.7%
- N=c1oc2ccccc2cc1C(=O)N/N=C/c1ccccc1 — lower, -25.1%
- COc1ccc(NS(=O)(=O)c2ccc(NC(=S)NCC3CCCO3)cc2)cc1 (centres unmarked) — lower, 5.45%
- CCOC(=O)c1cc(C)n(-c2ccc(OC)c(OC)c2)c1C — lower, -16.5%
- COc1ccc(-n2c(Cc3cc(=O)[nH]c(=O)[nH]3)nnc2SCC(=O)Nc2cc(C(F)(F)F)ccc2Cl)cc1 — lower, -3.73%
- CS(=O)(=O)N1CCN(C(=O)Cc2ccc([N+](=O)[O-])cc2)CC1 — lower, 0.692%
- COc1cc(OC)c(C(=O)Nc2ncn[nH]2)cc1OC — lower, -1.15%
- COc1ccc(NC(=S)Nc2ccc(Oc3ccccc3)cc2)cc1 — lower, 3.14%
- CC1CN(C(=O)CCC(=O)NCc2ccccc2Cl)c2ccccc2S1 (centres unmarked) — lower, -17.9%
- CC(C)P(=O)(Cc1cccc(C#N)c1)C(C)C — lower, -0.435%
- Cc1cccc(NC(=O)CCc2nc3sc4c(c3c(=O)[nH]2)CCCC4)n1 — lower, -3.28%
- Cc1nnc(N2C(=O)c3cccc4c([N+](=O)[O-])ccc(c34)C2=O)s1 — lower, 4.88%
- Cc1ccc(-n2c3nc(=O)[nH]c(=O)c-3cc3cc([N+](=O)[O-])ccc32)cc1C — lower, -26.9%
- COc1cc(NS(=O)(=O)c2ccc(NC(=O)COc3ccc(C)cc3C)cc2)nc(OC)n1 — lower, -10.7%
- Cc1ccc(S(=O)(=O)NNC(=O)CCC(=O)Nc2ccc(C)c(C)c2)cc1 — lower, 9.01%
- O=C(CCc1ccc(S(=O)(=O)N2CCOCC2)cc1)NN=C1CCCCCCC1 — lower, -17.5%
